PubChem BioAssay AID1461 (National Center for Advancing Translational Sciences (NCATS), 2008)
Several values for one entry are separate records, joined by “and”; a condition that tells them apart may be missing. Identical values can stand only once. Among all 220,000 compounds or so, about 2,300 (1%) were called active. The inconclusive results got no clear call from the source; some entries with a clear call stand among them for comparison. Calls follow the shape of the dose curve; as a rule, active = well fitted inhibition curve with a large enough effect; inconclusive = small, poorly fitted or top-dose-only effect, or effect the other way; inactive = no such curve, though single readings can be large or run the other way. Potencies of inconclusive entries are doubtful fits and often do not repeat.

Molecular target: Neuropeptide S receptor (Homo sapiens) (UniProt Q6W5P4)
Test: qHTS Assay for Antagonists of the Neuropeptide S Receptor: cAMP Signal Transduction; also: nearly all actives have a fitted effect of over 50% in size
Settings: CHO-NPSR cells, cAMP TR-FRET, antagonist mode; series mostly up to 38.3 µM
Potency is read from the fitted curve at half-maximal effect; tags tell the direction and shape of the fitted curve.

UniProt Q6W5P4, sequence (Q6W5P4 whole entry, looked up): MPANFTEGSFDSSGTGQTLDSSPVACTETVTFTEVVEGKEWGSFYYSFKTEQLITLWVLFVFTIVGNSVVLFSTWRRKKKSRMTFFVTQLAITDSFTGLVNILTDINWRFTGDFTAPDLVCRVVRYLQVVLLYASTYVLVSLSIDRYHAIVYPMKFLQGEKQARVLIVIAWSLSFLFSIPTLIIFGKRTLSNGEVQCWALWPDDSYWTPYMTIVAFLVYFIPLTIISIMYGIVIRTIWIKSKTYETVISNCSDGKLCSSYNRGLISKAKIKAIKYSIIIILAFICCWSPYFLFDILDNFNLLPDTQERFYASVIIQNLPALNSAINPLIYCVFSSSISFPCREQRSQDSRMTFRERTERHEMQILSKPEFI

| Structure (SMILES) | Potency |
| --- | --- |
| COC(=O)C1=C(C(=O)OC)SC2(S1)C(C(=O)OC)=C(C(=O)OC)SC1=C2c2cc(C)cc(C)c2NC1(C)C | inconclusive: 15.8 µM [inhibitor, partial curve, poor fit] |
| CC(C)c1ccc(NC(=O)CSc2nc(-c3ccccc3F)nc3nc[nH]c23)cc1 | inconclusive: 25.1 µM [inhibitor, single point] |
| Cc1cc(NCc2ccccc2Cl)n2nnnc2n1 | inconclusive: 12.6 µM [activator, partial curve] |
| O=S1(=O)C=C(Sc2nnc(-c3ccccc3)o2)c2ccccc21 | inconclusive: 7.94 µM [inhibitor, partial curve] |
| CC(C)(C)c1ccc(C(=O)NCC(=O)OCC(=O)Nc2ccccc2[N+](=O)[O-])cc1 | inactive |
| CC(C)CCNc1nc(N)c([N+](=O)[O-])c(NCC2CCCO2)n1 (centres undefined) | inactive |
| O=C(O)c1ccc(/C=N/Nc2ccc(S(=O)(=O)N3CCCC3)cc2[N+](=O)[O-])cc1 | inconclusive: 3.98 µM [activator, partial curve] |
| CN(C)c1ccc(CNC2CC(C)(C)NC(C)(C)C2)cc1 | inconclusive: 2.51 µM [activator, partial curve, poor fit] |
| COc1ccccc1N1CCN(C(=O)c2cc(C(C)(C)C)oc2C)CC1 | inconclusive: 25.1 µM [activator, single point] |
| CN(Cc1nc(-c2ccc(C(F)(F)F)cc2)no1)C1CCOCC1 | inactive |
| COC(=O)C(C)(C(=O)OC)c1ccccc1[N+](=O)[O-] | inconclusive: 31.6 µM [inhibitor, single point] |
| CCCCNc1c2c(nc3c(-c4ccccc4)c(C)nn13)CCC2 | active: 10 µM |
| O=C(N/N=C/c1cccs1)C1CC(=O)N(c2ccccc2)C1 (centres undefined) | inconclusive: 10 µM [inhibitor, single point] |
| CCN(CC)c1ccc(NC(=O)CSc2nnc3nc(C)cc(C)n23)cc1 | inconclusive: 12.6 µM [inhibitor, partial curve] |
| COCCNc1c2c(nc3c(-c4ccccc4)c(C)nn13)CCC2 | inconclusive: 10 µM [activator, partial curve] |
| CCOc1ccc(-n2c(=S)sc3c(=O)[nH]c(SCC(=O)C(C)(C)C)nc32)cc1 | inconclusive: 2 µM [inhibitor, full curve, poor fit] |
| COc1cccc(C(=O)NC(=S)Nc2ccccc2N2CCCC2)c1 | inactive |
| Nc1ccc(S(=O)(=O)Nc2ccnn2-c2ccccc2)cc1 | inactive and inconclusive: 3.16 µM [inhibitor, partial curve] |
| CC(C)(C)N(Cc1ccccc1)C(=O)CSc1nnc(CNc2ccc(F)cc2)o1 | inconclusive: 25.1 µM [inhibitor, single point] |
| O=C1CCCC2=C1C(c1ccc(OS(=O)(=O)c3ccc(Cl)cc3)cc1)C1=C(CCCC1=O)O2 | inconclusive: 12.6 µM [inhibitor, partial curve] |
| COC(=O)c1ccc(-c2ccco2)n1Cc1nc(-c2ccc(OC)c(OC)c2)oc1C | inconclusive: 25.1 µM [inhibitor, single point] |
| O=C(CCCn1c(=S)[nH]c2ccc(Br)cc2c1=O)N1CCN(c2ccccn2)CC1 | inconclusive: 12.6 µM [inhibitor, single point] |
| N#Cc1nc(-c2ccc(Cl)cc2)oc1N1CCCCC1 | inconclusive: 12.6 µM [inhibitor, partial curve] |

| Structure (SMILES) | Potency |
| --- | --- |
| CCN(CC)c1nc(OCCNC(=O)Nc2ccccc2)nc(N(CC)CC)n1 | inconclusive: 31.6 µM [inhibitor, single point] |
| CCCCn1cnc2cc(NCc3ccncc3)ccc21 | inactive |
| Cc1ccc(Oc2ccc(-c3nnc(-c4ccccc4)o3)cc2[N+](=O)[O-])cc1C | inactive |
| NC(=O)CSc1nnc(COc2ccccc2)n1CCc1ccccc1 | inconclusive: 12.6 µM [activator, partial curve] |
| N#C/C(=C/c1ccc(N2CCOCC2)o1)c1ccc(Cl)cc1 | inconclusive: 7.94 µM [inhibitor, partial curve, poor fit] |
| CCN(CC)c1ccc(/C=N/NC(=O)c2ccc3nc[nH]c3c2)c(O)c1 | inactive |
| CCOCCCn1c(=S)[nH]c2cc(C(=O)NCC(OC)OC)ccc2c1=O | inactive |
| Cc1nc2ccccc2c(=O)n1Cc1ccco1 | inactive |
| O=C(NCc1ccco1)C(c1cccs1)N(Cc1ccccc1)C(=O)Cn1nnc2ccccc21 (centres undefined) | inconclusive: 7.94 µM [inhibitor, partial curve] |
| Cc1cc(Cl)ccc1N=Cc1c(O)n(C)c(=O)n(C)c1=O | inactive |
| COc1ccc(C2CC(c3c(O)cc(C)oc3=O)=NCCS2)c(OC)c1 (centres undefined) | inconclusive: 6.31 µM [activator, partial curve] |
| COc1ccc(S(=O)(=O)N(C)c2ccc(OCC(=O)Nc3cc(C)on3)cc2)cc1 | inconclusive: 15.8 µM [inhibitor, partial curve, poor fit] |
| Cc1cc(C)nc(-n2nc(C)cc2NC(=O)CN2CCCC(C)C2)n1 (centres undefined) | inactive |
| CCO[C@H]1OC(C(=O)Nc2ccccc2)=C[C@@H](c2ccc(C(F)(F)F)cc2)[C@@H]1CCCO | inconclusive: 12.6 µM [activator, partial curve] |
| OCC1O[C@H](O)C(Cl)C(O)C1O (some centres undefined) | inconclusive: 3.98 µM [inhibitor, partial curve] |
| CC(CCc1ccccc1)NC(=O)c1cc2sccc2n1C (centres undefined) | inconclusive: 5.01 µM [inhibitor, single point] |
| C=CCn1c(SCc2c(C(=O)OC)sc(N)c2C(=O)OC)nnc1-c1ccc(Br)cc1 | inconclusive: 31.6 µM [inhibitor, single point] |
| Cc1ccc2cc(COC(=O)C3CCCO3)c(=O)[nH]c2c1 (centres undefined) | inconclusive: 31.6 µM [inhibitor, single point] |
| CC(/C=C/c1ccco1)=N\NC(=O)C(O)c1ccccc1 (centres undefined) | inactive |
| Cc1[nH]c(=S)sc1Cc1ccc(Cl)c(Cl)c1 | inactive |
| O=C1N(CCCCN2C(=O)C3(OCCO3)c3ccccc32)c2ccccc2C12OCCO2 | inactive |
| Cc1nc2c(c(=O)n1CCC1=CCCCC1)c1nc3ccccc3nc1n2/N=C/c1ccco1 | active: 10 µM |
| CCCCCCCCCn1ccc(=N)cc1 | inactive |

| Structure (SMILES) | Potency |
| --- | --- |
| Cc1cccc(Nc2ccccc2)c1 | inconclusive: 25.1 µM [activator, single point] |
| CCOC(=O)c1sc2nc(CC(=O)OC)nc(N3CCN(c4ccccn4)CC3)c2c1C | inconclusive: 3.16 µM [inhibitor, partial curve] |
| Cc1ccc2cc(C(c3nnnn3C3CCCC3)N(Cc3cccnc3)Cc3ccco3)c(=O)[nH]c2c1 (centres undefined) | inconclusive: 10 µM [inhibitor, partial curve] |
| Clc1ccc(CSc2nnc(-c3ccccn3)n2Cc2ccco2)c(Cl)c1 | inconclusive: 12.6 µM [inhibitor, partial curve] |
| O=C(c1ccccc1F)N(Cc1ccc2c(c1)OCO2)Cc1cc2cc3c(cc2n2nnnc12)OCO3 | inconclusive: 3.98 µM [inhibitor, full curve] |
| O=C(C1CC1c1ccccc1)N1CCN(c2cccc(Cl)c2)CC1 (centres undefined) | inconclusive: 15.8 µM [inhibitor, partial curve] |
| CCO[C@H]1OC(C(=O)N2CCN(Cc3ccccc3)CC2)=C[C@@H](c2ccc(C(F)(F)F)cc2)[C@@H]1CCCO | inactive |
| O=C(Cn1cnc2c(nnn2Cc2ccccc2F)c1=O)NCc1ccco1 | inactive |
| CCOC(=O)c1c(NC(=O)Cn2cnc3scc(-c4ccc(C)cc4)c3c2=O)sc(C)c1C | inactive |
| COC(=O)[C@@H]1CCCN1Cc1nc(Cc2ccc(OC)c(OC)c2)no1 | inactive |
| COc1ccc(C2=C(CN(C)C)C(c3ccccc3)c3ccccc3O2)cc1 (centres undefined) | inconclusive: 15.8 µM [inhibitor, partial curve] |
| Cc1c(Cc2ccccc2)c(=O)n2c([nH]c3ccccc32)c1C#N | inconclusive: 25.1 µM [inhibitor, single point] |
| O=C(OC1CCCCC1=O)c1cc(=O)c2ccccc2o1 (centres undefined) | inconclusive: 25.1 µM [inhibitor, single point] |
| O=C(CNCCC1=CCCCC1)Nc1ccc(N2CCCCCC2)cc1 | inconclusive: 12.6 µM [inhibitor, single point] |
| Cc1cc(C)c2sc(N(CCN(C)C)C(=O)c3c(F)cccc3F)nc2c1 | inconclusive: 10 µM [inhibitor, single point] |
| COc1ccccc1CN(Cc1nc2ccccc2c(=O)[nH]1)S(=O)(=O)c1ccc2ccccc2c1 | inactive |
| COc1cc(CNCCN2CCOCC2)ccc1OCc1ccc(Cl)cc1Cl | inconclusive: 25.1 µM [inhibitor, single point] |
| Cc1ccc(NC(=O)NC2=N/C(=C(/C#N)C(=O)N3CCCC3)c3ccccc32)cc1 | inconclusive: 15.8 µM [inhibitor, single point] |
| CCn1c(/N=C/c2c[nH]c3ccccc23)nc2ccccc21 | inconclusive: 12.6 µM [inhibitor, single point] |
| O=C(Nc1ccc(NC(=O)c2cccs2)cn1)c1ccccc1 | inactive |
| Cc1cc(C(=O)COc2cccc3cccnc23)c(C)n1C | inconclusive: 25.1 µM [inhibitor, single point] |
| O=C(NCCc1ccccc1)C(c1cccs1)N(C(=O)CCl)c1ccc(Cl)cc1 (centres undefined) | inconclusive: 12.6 µM [inhibitor, single point] |
| CCC(=O)Nc1c(S(=O)(=O)c2ccccc2)c2nc3ccccc3nc2n1C(C)c1ccccc1 (centres undefined) | inactive |
